Measurements: PubChem BioAssay AID504444 (National Center for Advancing Translational Sciences (NCATS), 2011)
The whole screen tested about 360,000 compounds, of which about 7,500 (2.1%) were called active. Another 20% or so got no clear call; they are omitted. Calls come from the whole dose curve; as a rule, active = well fitted inhibition curve with a large enough effect; inconclusive = small, poorly fitted or top-dose-only effect, or effect the other way; inactive = flat fitted curve, though single readings scatter. Only a part is listed here, and it is no random draw.

Assay: Nrf2 qHTS screen for inhibitors; note: nearly all actives have a fitted effect of over 60% in size
Conditions: A549 ARE-Fluc reporter, luciferase luminescence, 18-24 h; series mostly up to 46 µM; activity change, negative = inhibition: at the top concentration
How it was run: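 In this cell-based qHTS, ARE-driven firefly luciferase in A549 cells reports Nrf2 activity; the luminescent signal after BugLite lysis is the measured value, with a prior CellTiter-Fluor read for cell health.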
% is set by controls: 0 for no effect and ±100 for the full control effect; potency is the fitted concentration of half-maximal effect.

Which “activity change, negative = inhibition” value does the source give for C[C@H]1CCC[C@@]2(O[C@@H](CCO)C[C@@H](O)[C@@H]2O)O1 here?
The value was inactive: -10.8%.

For Nc1nncn1C(=O)c1ccc(Cl)cc1Cl, which Potency is on record?
The Potency was active: 1.64 µM.

For O=C1c2ccccc2NC(c2cccc(O)c2)N1Cc1ccco1 (stereo not given), which “activity change, negative = inhibition” value is on record?
Its value is inactive: 0.957%.

For O=C(Cn1cnc(S(=O)(=O)N2CCCC2)c1)Nc1ccccc1, which “activity change, negative = inhibition” value is on record?
The value was inactive: 16.7%.

With CCC(C)NC(=O)c1cn(CC)c2ccc(S(=O)(=O)N3CCCCC3)cc2c1=O (stereo not given) as the molecule, how does the “activity change, negative = inhibition” value read?
The value was inactive: 6.4%.

Which “activity change, negative = inhibition” value does the source give for Cc1cccn2c(=O)c3cc(C#N)c(=NC(=O)c4ccccc4)n(Cc4ccco4)c3nc12 here?
Its value is inactive: -26.2%.

For CC(=O)OC(COc1ccccc1)Cn1cnc2cc(C)c(C)cc21 (stereo not given), which “activity change, negative = inhibition” value is on record?
Its value is inactive: -29.6%.

For CC(C)N(Cc1ccccc1)C(=O)CN1C(=O)COc2ccc(S(=O)(=O)NC3CCCC3)cc21, which “activity change, negative = inhibition” value is on record?
The value was inactive: 1.61%.

Which “activity change, negative = inhibition” value does the source give for O=S1(=O)Nc2c(ccc3cccnc23)-c2ccccc21 here?
Its value is inactive: -24.2%.

Which “activity change, negative = inhibition” value does the source give for COc1ccc(CNC(=O)c2nnn(CC(=O)Nc3cc(C)cc(C)c3)c2N)cc1 here?
Its value is inactive: 2.91%.

For COc1ccc(NC(=O)/C(C#N)=C/c2cc(C)n(-c3ccc(N4CCOCC4)c([N+](=O)[O-])c3)c2C)cc1, which Potency is on record?
Its Potency is active: 6.51 µM.

With CC(=O)Nc1ccc(S(=O)(=O)Nc2ccc3nc(C)sc3c2)cc1 as the molecule, how does the Potency read?
The Potency was active: 16.4 µM.

With CCCNC(=O)c1cc(S(=O)(=O)N2CCc3ccccc32)cn1C as the molecule, how does the Potency read?
Its Potency is active: 11.6 µM.

For CCOC(=O)[C@H](CCc1ccccc1)N[C@@H](C)C(=O)N1CCC[C@H]1C(=O)O, which “activity change, negative = inhibition” value is on record?
Its value is inactive: -12.3%.

With O=C1CCc2cc(S(=O)(=O)Nc3ccc(F)cc3)ccc2N1 as the molecule, how does the “activity change, negative = inhibition” value read?
Its value is inactive: 3.15%.

For CCOC(=O)C1CCCN(C(=O)c2ccc3c(c2)N(Cc2ccccc2)C(=O)c2ccccc2S3=O)C1 (stereo not given), which “activity change, negative = inhibition” value is on record?
Its value is inactive: 7.28%.

For O=C(CCCN1C(=O)/C(=C/c2ccccc2Cl)SC1=S)NNC(=O)c1ccc(Cl)cc1Cl, which Potency is on record?
The Potency was active: 6.51 µM.

For Cc1ccc[n+](CC2OCc3ccccc3CO2)c1, which Potency is on record?
Its Potency is active: 7.31 µM.

Which activity change, negative = inhibition does the source give for CCOc1ccccc1NC(=O)C(CC(C)C)NC(=O)C1CCC(C)CC1 (stereo not given) here?
Its activity change, negative = inhibition is inactive: 5.79% [at 9.27 µM].

With Cc1ccc(NC(=O)CCc2c(C)nn(-c3ccc(N4CCOCC4)nn3)c2C)c(C)c1 as the molecule, how does the “activity change, negative = inhibition” value read?
The value was inactive: -7.29%.

For C[C@]12CC[C@@H]3c4ccc(O)cc4CC[C@H]3[C@@H]1C[C@@H](O)[C@@H]2O, which “activity change, negative = inhibition” value is on record?
The value was inactive: -9.28%.

For C=CCC[C@H](Cc1ccc(F)cc1)C(=O)OC[C@@H](C)NC(=O)[C@@H](CC=C)CC(=O)N[C@@H](CO)Cc1ccccc1, which “activity change, negative = inhibition” value is on record?
Its value is inactive: -9.12%.

Which Potency does the source give for O=C(Nc1ccc(Br)cc1)c1cccc(S(=O)(=O)Nc2ccccn2)c1 here?
Its Potency is active: 13 µM.

For COc1ccc(OCc2nc3ccccc3n2C(C)C)cc1, which Potency is on record?
Its Potency is active: 23.1 µM.

Which “activity change, negative = inhibition” value does the source give for Cn1nnnc1Sc1ncnc2scc(-c3ccccc3)c12 here?
The value was inactive: -5.74%.

With COc1ccc(NC(=O)c2ccco2)cc1NC(=O)c1ccc(C#N)cc1F as the molecule, how does the “activity change, negative = inhibition” value read?
Its value is inactive: -0.257%.

With CC(C)(C)OC(=O)C[C@@H]1C/C=C\C[C@@H](CC(=O)N(CCO)Cc2ccccc2)C(=O)NC[C@@H](c2ccccc2)OC1=O as the molecule, how does the “activity change, negative = inhibition” value read?
Its value is inactive: -3.95%.

With COC(=O)N1C(=O)[C@](c2ccc(OC)cc2)(C(C)C)N1C(=O)OC as the molecule, how does the “activity change, negative = inhibition” value read?
Its value is inactive: -7.33%.

For Cc1ccc(NC(=O)c2ccc3snnc3c2)cc1C, which “activity change, negative = inhibition” value is on record?
Its value is inactive: 19%.

For Cc1ccc(C)c(N2CCN(C(=O)CCCOc3cc(=O)n(C)c4ccccc34)CC2)c1, which Potency is on record?
Its Potency is active: 23.1 µM.

For COc1ccc(-c2ccc(C)cc2)cc1C1C2C=CCCC2(C)C(=O)N1Cc1ccccc1 (stereo not given), which “activity change, negative = inhibition” value is on record?
Its value is inactive: -24.5%.

For CCN(C(=O)CN1C(=O)COc2ccc(S(=O)(=O)N3CCOCC3)cc21)c1ccc(OC)cc1, which “activity change, negative = inhibition” value is on record?
Its value is inactive: 0%.

With Cc1ccc(C(=O)C2CCN(C(=O)c3ccc(C)cc3)CC2)cc1 as the molecule, how does the Potency read?
The Potency was active: 23.1 µM.

For Cc1cc(Cl)c(S(=O)(=O)NC2CCCC2)cc1OCC(=O)NC1CCCCC1, which Potency is on record?
Its Potency is active: 6.51 µM.

With CC(=O)/C(=C\N(C)C)Sc1ccc(C)cc1 as the molecule, how does the “activity change, negative = inhibition” value read?
The value was inactive: 4.2%.

With CCOC(=O)[C@@H]1[C@H]2COc3cc(OC)ccc3[C@@H]2N2C(=O)N(c3ccc(C(F)(F)F)cc3)C(=O)[C@]12C as the molecule, how does the “activity change, negative = inhibition” value read?
Its value is inactive: 29.9%.

Which “activity change, negative = inhibition” value does the source give for Cc1c(C(=O)N2CCN(c3ccccc3)CC2)sc2nc3n(c(=O)c12)CCC3 here?
The value was inactive: -20.5%.

For Cc1ccc(NC(=O)CSc2nc3ccccc3nc2N2CCOCC2)cc1, which “activity change, negative = inhibition” value is on record?
Its value is inactive: -0.743%.

For CCOC(=O)c1ccc(N=c2sc(C(=O)OC)cc(=O)n2CCCN2CCOCC2)cc1, which “activity change, negative = inhibition” value is on record?
Its value is inactive: 4.53%.

With O=C(CSc1nc2nn(-c3ccccc3)c(=O)c-2c2n1CCCCC2)Nc1ccc(F)c(F)c1 as the molecule, how does the Potency read?
The Potency was active: 18.4 µM.

Which Potency does the source give for Cc1cc2oc(=O)cc(CSc3nnc(-c4cccs4)o3)c2cc1C(C)C here?
Its Potency is active: 8.2 µM.

Which “activity change, negative = inhibition” value does the source give for O=C(CSc1ncc(-c2ccccc2)[nH]1)Nc1ccccc1 here?
The value was inactive: 18.8%.

For COCCCn1c(=O)c2sccc2n2c(CCCC(=O)NCc3cccc(OC)c3)nnc12, which “activity change, negative = inhibition” value is on record?
Its value is inactive: -1.75%.

Which “activity change, negative = inhibition” value does the source give for C[C@H]1CCC[C@@]2(O[C@H](CCO)C[C@@H](O)[C@@H]2O)O1 here?
Its value is inactive: -4.94%.

Which “activity change, negative = inhibition” value does the source give for Nc1nc(NCc2ccccc2)c2[nH]cnc2n1 here?
Its value is inactive: -14.4%.
